Measured values taken from the supplement of paper PMC11417369.
± gives the standard deviation of the averaged measurements. The list shows a part of the results.

tested on: PfAP2-I AP2 domain 3 (GST-tagged); assay: gcPBM binding intensity (ln(normalized median fluorescence intensity)); higher = stronger DNA binding
Summary of the method: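 After 1 h on an Agilent 4 × 180k array of primer-extended double-stranded 36-bp intergenic genomic probes and negative controls, bound GST-tagged P. falciparum DNA-binding domains were detected with Alexa488 anti-GST antibody and scanned at 488 nm. The domains had been expressed in E. coli, and binding took place in 1× PBS with 1% milk, 0.2 mg/ml BSA, 0.5% salmon testes DNA and 0.03% Triton X-100. Binding intensity is the highest Masliner-normalised natural-log median intensity across replicate spots of either probe orientation.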

Row | Sequence | gcPBM binding intensity (ln)
1 | AGCAAATCAGATAGTAGTACATTTAAATTAGACTTT [XGTACX_site4172] | 7.67 ± 0.39
2 | TAAAAATTTTAATAAACACACAATGAGATATTGAAT [CACACA_site5704] | 7.58 ± 0.61
3 | CAAAATAAAAATAACACACACATTTATATATATACA [CACACA_site1190] | 7.58 ± 0.57
4 | TTTTTAATTATCTTTTCCCATGGTTTCTCCGTTTTT [XGTACX_negctrl_site39] | 7.74 ± 1.1
5 | TTTTTAAAACATCACTGTACCCGTTATGGTGAACAT [XGTACX_site3483] | 7.84 ± 0.28
6 | TAAAACATAAGAGACACACACACATATATATATATA [CACACA_site3643] | 9.59 ± 0.48
7 | ATATTCTTTTTATGTGGTACTAATTTTTTTTTTTTA [XGTACX_site3791] | 7.99 ± 0.4
8 | TTTTTAAATAATTGAAGTACACATTTCTCTAAGTTG [XGTACX_site2846] | 7.62 ± 0.4
9 | AGTAAAAGAAAGCACACACACATGTATATAGGTATG [CACACA_site7759] | 8.03 ± 0.49
10 | CATGTATTTTATATTACACACTAATATTATAGATAT [CACACA_site6819] | 7.8 ± 0.37
11 | TTTTTTTTTTTGTTTAAACACACGAGCTTTCTTCTT [CACACA_site4085] | 8.26 ± 1
12 | AAACATATAAACATATGTACATATAAACATATATAC [XGTACX_site5026] | 7.67 ± 0.41
13 | ATGTAAATATATATATGTACTAATTAGTAGTTTACG [XGTACX_site6271] | 8.29 ± 0.36
14 | TTACATAATTTCTGCTGTACCAATTTTGAGAAGTTG [XGTACX_site4023] | 7.86 ± 0.53
15 | AAAAGGAATATAATCATTCAAAAATATAATATATAT [GTGCAC_negctrl_site551] | 7.73 ± 0.52
16 | ATCTTAACTCTATGCACACATAAAAGTATATAAATA [CACACA_site2256] | 9.38 ± 0.18
17 | TTTTATAAATTATAATTCTATTATCTGTTCTTTTTA [TGCATGCA_negctrl_site487] | 7.58 ± 0.63
18 | CATACATACATACATACACACATACAGATATATATA [CACACA_site4890] | 8.88 ± 0.7
19 | TCCTTATTACTTTTTTAAGTCGTAATGAAAGAAAAA [CACACA_negctrl_site1497] | 7.58 ± 0.64

Row | Sequence | gcPBM binding intensity (ln)
20 | ATCATCCAAGATCTTACACACATATTAAATAAATAA [CACACA_site1473] | 7.93 ± 0.45
21 | TTTTATTTTTTTAAATGTACACATATTAATGTAAGG [XGTACX_site319] | 7.92 ± 0.3
22 | ATCATGTTATATACATGTACATATATATATATATAA [XGTACX_site609] | 8 ± 0.42
23 | AACACAGATAAATTAACACACACACCCATATATATA [CACACA_site9310] | 8.48 ± 0.69
24 | CACATATAGTTATATGCACACATCTTACACATCTAT [CACACA_site5937] | 9.49 ± 0.21
25 | CAATTTGGGGTGTACACACACCTTATTTAAATTAAA [CACACA_site6663] | 8.02 ± 0.36
26 | TTGAACTCTCTTACGCGTACGTGTTATTATGAAAAT [XGTACX_site6265] | 7.98 ± 0.75
27 | ATGAAATATCGGAACGCACACATAAATATATTTATA [CACACA_site2670] | 8.575 ± 0.078
28 | TAGCTTATTAATATCATACACACATAGATATATTTA [CACACA_site3105] | 7.5 ± 0.54
29 | TATATATATATATGTGCATGTAATGATTCAGCATCT [TGCATGCA_site803] | 9.45 ± 0.16
30 | TTTTTTTTTTTAAATTGTACTTATTTTATATTATAT [XGTACX_site1077] | 7.95 ± 0.59
31 | ATATCTTATTTTCCTTGTACTTATTTCATAATTACA [XGTACX_site3894] | 8.09 ± 0.53
32 | TATTAAATATTGTAATGTACATATATAATATAATAT [XGTACX_site1809] | 7.82 ± 0.39
33 | AATGTCATGATACATACACACACATACACATACACA [CACACA_site8665] | 8.04 ± 0.57
34 | TAAATATGTATAAATTGTACAAAATATATGAATAGT [XGTACX_site5659] | 8.16 ± 0.49
35 | AATTTCCCATATTACACACATACTATGATATATAAA [CACACA_site3834] | 8.1 ± 0.57
36 | CAATAAACCATTTTTTGTACATAAAAATAGGTATTG [XGTACX_site1892] | 7.58 ± 0.5
37 | TATTATATTTATATTTGTACTTAAAATATTATACAC [XGTACX_site2881] | 7.83 ± 0.42
38 | AGTATACGCAAACACACACACACAAAAAAAAAAAAA [CACACA_site426] | 7.96 ± 0.58

Row | Sequence | gcPBM binding intensity (ln)
39 | AAATAAGAAAATCATAGTACATAGGAATAGAAGAAC [XGTACX_site3135] | 8.75 ± 0.61
40 | AGAAAAATTATATATACACACTTATATTTATATATA [CACACA_site5555] | 7.58 ± 0.52
41 | TACGTTCTGATATATACACACCTGGTATTAATTATG [CACACA_site7113] | 7.96 ± 0.7
42 | TTAAAAAAAGAAAAAAAAAAAAAAAAAAAAAAACAT [CACACA_negctrl_site475] | 7.71 ± 0.52
43 | TATAAAAATATTTCTACACACATTAATATTTATATA [CACACA_site6661] | 7.77 ± 0.48
44 | TATTATATTCTGCTTACACACATATATATATATATA [CACACA_site3060] | 9.5 ± 0.37
45 | GTTCTAAATATTATTGCATGTTGCACGTTTCTCTGT [TGCATGCA_site159] | 9.52 ± 0.23
46 | GTGATAATTGCTTGGTGTACCCACATATATATATAT [XGTACX_site1636] | 9.32 ± 0.23
47 | AAAGAGAAATTTAAATGTACATTTGTTCTAAGTGTA [XGTACX_site3602] | 7.62 ± 0.56
48 | AATTATGAAAAATCAAGTACAAACAAAATCATAATT [XGTACX_site5665] | 7.99 ± 0.76
49 | AAAAGATATATTATATGTACTAATTATATGATAAAT [XGTACX_site4192] | 7.79 ± 0.43
50 | CATACACCCATACATACACACATACATATATATATA [CACACA_site8591] | 9.19 ± 0.38
51 | ATATAATGTTTCACATGTACAAACAACACAAAAAAA [XGTACX_site1899] | 8 ± 0.52
52 | CTTTAGTTTTTAATGTGTACTGAATTTGAATAGTAG [XGTACX_site7920] | 8 ± 0.13
53 | CGTATTATTTTATAAACACACAAGGGGGCATGTATA [CACACA_site6489] | 9.34 ± 0.099
54 | TTGATATGTACAGGCACACATAAATTTCACAAATAT [CACACA_site3999] | 8.09 ± 0.29
55 | CATAAATGTATATAAACATGCAAGGACAGACTTTTA [TGCATGCA_site900] | 7.71 ± 0.69
56 | ATATAATTAAAAACATGTACATATATATATATATAT [XGTACX_site2882] | 9.27 ± 0.2
